Assay results as given in the supplement of paper PMC5919970.
Structures can show the parent of a compound that is named as a salt. Whole data set: some 2,000 compounds, median “fractional viability relative to vehicle” near 0.91, cut for the lowest 2% near 0.045. Some of the results follow.

Test system: TYKNU
Test: fractional viability relative to vehicle; TYKNU is a high-grade serous ovarian cancer line; higher = less growth inhibition
Conditions: 72 h
How it was run: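 TYKNU control cells or lentiCRISPRv2 knockout derivatives were plated at 500 cells per well in duplicate into drug-stamped 384-well plates holding a ~2100-compound library at 2 or 10 μM. Culture was in RPMI 1640 with 10% FBS at 37 °C in 5% CO2, with 72 h of drug treatment. Viability was measured by Cell Titer Glo luminescence, and the averaged duplicate treatment wells were normalised to duplicate control wells at the same plate position.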

[1] = 2uM, genotype: DNM1L knockout (sgDNM1L #1)
[2] = 2uM, genotype: sgCTRLA1 (non-targeting control)
[3] = 10uM, genotype: DNM1L knockout (sgDNM1L #1)
[4] = 10uM, genotype: sgCTRLA1 (non-targeting control)

Row | Structure (SMILES) | fractional viability [1] | fractional viability [2] | fractional viability [3] | fractional viability [4]
1 | O=C(O)CCc1ccc(NCc2cccc(Oc3ccccc3)c2)cc1 | 0.796 | 0.921 | 0.837 | 0.78
2 | CCS(=O)(=O)N1CC(CC#N)(n2cc(-c3ncnc4[nH]ccc34)cn2)C1 | 1.04 | 1.16 | 0.852 | 1.1
3 | O=C1NCC2(CCN(CCc3ccccc3)CC2)O1 [Fenspiride HCl] | 0.849 | 0.982 | 0.843 | 1.08
4 | Clc1ccc2c(c1)CCc1cccnc1C2=C1CCNCC1 [Desloratadine] | 1.12 | 0.887 | 0.774 | 0.859
5 | C[C@H]1CO[C@@H]2Cn3cc(C(=O)NCc4ccc(F)cc4F)c(=O)c(O)c3C(=O)N12 | 0.658 | 0.907 | 0.74 | 0.66
6 | Nc1nccc(Oc2ccc(NC(=O)c3c[nH]cc(-c4ccc(F)cc4)c3=O)cc2F)c1Cl | 1.09 | 1.05 | 0.598 | 0.808
7 | O=C(c1ccc(F)cc1)C1CCN(CCn2c(=O)[nH]c3ccccc3c2=O)CC1 [Ketanserin] | 0.953 | 1.17 | 0.887 | 1.07
8 | NC(=O)Nc1cc(-c2cccc(F)c2)sc1C(=O)N[C@H]1CCCNC1 | 0.229 | 0.152 | 0.102 | 0.102
9 | C[C@H]1[C@H](C)CC[C@]2(C(=O)O)CC[C@]3(C)C(=CC[C@@H]4[C@@]5(C)CC[C@H](O)C(C)(C)[C@@H]5CC[C@]43C)[C@H]12 [Ursolic Acid] | 0.897 | 1.13 | 0.743 | 1.04
10 | CCCCCCCCCCCCCCCC(=O)OC[C@H](O)[C@H]1OC(=O)C(O)=C1O [L-Ascorbyl 6-palmitate] | 0.995 | 1.14 | 0.984 | 1.07
11 | Cc1csc(-c2nnc(Nc3ccc(Oc4ncccc4-c4ccnc(N)n4)cc3)c3ccccc23)c1 | 0.581 | 0.498 | 0.471 | 0.495
12 | Nc1nc2c(ncn2COC(CO)CO)c(=O)[nH]1 [Ganciclovir] | 0.966 | 1.05 | 0.837 | 0.896
13 | COc1c(C)cnc(Cn2cnc3c(Cl)nc(N)nc32)c1C | 0.286 | 0.209 | 0.277 | 0.246
14 | COc1ccc2c(Oc3ccc(NC(=O)c4c(C)n(CC(C)(C)O)n(-c5ccccc5)c4=O)nc3)ccnc2c1 | 1.3 | 1.14 | 0.706 | 0.877
15 | NCCCCCC(=O)O [_6-__-_Aminocaproic acid] | 1.07 | 1.09 | 0.981 | 1.15
16 | CC(C)CCNC(=O)[C@H](CC(C)C)NC(=O)[C@H]1O[C@@H]1C(=O)O [Loxistatin Acid (E-64C)] | 0.865 | 0.938 | 0.959 | 0.802
17 | c1ccc2c(CCNc3ccc(Nc4ccncc4)cc3)c[nH]c2c1 | 0.284 | 0.385 | 0.0485 | 0.0461
18 | Cc1nc2c([nH]1)-c1ccccc1N(C(=O)c1ccc(NC(=O)c3ccccc3-c3ccccc3)cc1)CC2 [Conivaptan HCl] | 0.933 | 1.06 | 1.06 | 0.97
19 | Cc1cnc(Nc2ccc(OCCN3CCCC3)cc2)nc1Nc1cccc(S(=O)(=O)NC(C)(C)C)c1 | 0.352 | 0.378 | 0.0362 | 0.0573
20 | Cn1ncnc1[C@H]1c2n[nH]c(=O)c3cc(F)cc(c23)N[C@@H]1c1ccc(F)cc1 | 0.659 | 0.824 | 0.601 | 0.673
21 | O=C(Cc1ccccc1)Nc1nnc(CCSCCc2nnc(NC(=O)Cc3ccccc3)s2)s1 | 0.84 | 1.02 | 0.818 | 0.781

Row | Structure (SMILES) | fractional viability [1] | fractional viability [2] | fractional viability [3] | fractional viability [4]
22 | COc1ccc(-c2nc(N3CCOCC3)c3sc(CN(C)c4ncc(C(=O)NO)cn4)cc3n2)cn1 | 0.0583 | 0.0505 | 0.0565 | 0.0395
23 | COc1cc(-c2ncn(/C=C\C(=O)OC(C)C)n2)cc(C(F)(F)F)c1 | 0.131 | 0.143 | 0.119 | 0.15
24 | COc1ccc(Cl)c(Nc2nc3ccccc3nc2NS(=O)(=O)c2cccc(NC(=O)C(C)(C)N)c2)c1 [Pilaralisib (XL147)] | 0.781 | 0.837 | 0.572 | 0.555
25 | CCCNC(=O)NS(=O)(=O)c1ccc(Cl)cc1 [Chlorpropamide] | 0.887 | 1.17 | 0.842 | 1
26 | Clc1cccc(Cl)c1NC1=NCCN1 [Clonidine HCl] | 0.948 | 1.06 | 0.875 | 1.06
27 | CN(C)S(=O)(=O)c1ccc2c(c1)/C(=C/c1cc3c([nH]1)CCCC3)C(=O)N2 | 0.562 | 0.815 | 0.234 | 0.264
28 | C[C@]12C=CC(=O)N[C@@H]1CC[C@@H]1[C@@H]2CC[C@]2(C)[C@@H](C(=O)Nc3cc(C(F)(F)F)ccc3C(F)(F)F)CC[C@@H]12 [Dutasteride] | 0.866 | 0.982 | 0.799 | 0.954
29 | CO[C@H]1/C=C/O[C@@]2(C)Oc3c(C)c(O)c4c(O)c(c5c(nc6cc(C)ccn65)c4c3C2=O)NC(=O)/C(C)=C\C=C\[C@H](C)[C@H](O)[C@@H](C)[C@@H](O)[C@@H](C)[C@H](OC(C)=O)[C@@H]1C [Rifaximin] | 0.936 | 1.09 | 0.912 | 1.03
30 | CC(C)NC[C@@H](C(=O)N1CCN(c2ncnc3c2[C@H](C)C[C@H]3O)CC1)c1ccc(Cl)cc1 | 0.895 | 0.899 | 0.589 | 0.773
31 | Cc1ccc([C@@H]2O[C@H](CO)[C@@H](O)[C@H](O)[C@H]2O)cc1Cc1ccc(-c2ccc(F)cc2)s1 [Canagliflozin] | 0.914 | 1.05 | 0.615 | 0.955
32 | CC(C)(C)c1cc(C(C)(C)C)c(NC(=O)c2c[nH]c3ccccc3c2=O)cc1O [Ivacaftor (VX-770)] | 0.856 | 1.08 | 0.301 | 0.796
33 | COc1cccc(C=NCCN=Cc2cccc(OC)c2[O-])c1[O-].[Cl-].[Mn+3] | 0.805 | 0.978 | 0.756 | 0.897
34 | COCC(=O)NC/C=C/c1ccc2ncnc(Nc3ccc(Oc4ccc(C)nc4)c(C)c3)c2c1 | 1.07 | 1.08 | 0.886 | 1.06
35 | Oc1cc2c(cc1O)C(c1ccccc1)CNCC2 (centres undefined) | 0.767 | 0.909 | 0.716 | 0.675
36 | Cn1c(=O)c2c(ncn2CC2OCCO2)n(C)c1=O [Doxofylline] | 0.857 | 1.18 | 0.815 | 1.14
37 | C=CC(=O)Nc1cccc(Sc2nc(Nc3ccc(N4CCN(C)CC4)cc3)ncc2Cl)c1 | 0.965 | 0.898 | 0.0379 | 0.0337
38 | CCCCNc1ncc(C(=O)NCc2ccc(-n3ccnc3)cc2)c(NC2CCC(O)CC2)n1 (centres undefined) | 1.06 | 1.06 | 0.296 | 0.324
39 | CCOC(=O)[C@H]1O[C@@H]1C(=O)N[C@@H](CC(C)C)C(=O)NCCC(C)C [Aloxistatin] | 0.853 | 0.91 | 0.817 | 0.78
40 | COc1cc(Nc2c(C#N)cnc3cc(OCCCN4CCN(C)CC4)c(OC)cc23)c(Cl)cc1Cl [Bosutinib (SKI-606)] | 0.41 | 0.574 | 0.138 | 0.111
41 | CCC1(c2ccccc2)C(=O)NCNC1=O [Primidone] | 0.866 | 1.14 | 1.04 | 1.09
42 | CCCCc1oc2ccc(NS(C)(=O)=O)cc2c1C(=O)c1ccc(OCCCN(CCCC)CCCC)cc1 [Dronedarone HCl] | 0.712 | 0.919 | 0.0442 | 0.0545

Row | Structure (SMILES) | fractional viability [1] | fractional viability [2] | fractional viability [3] | fractional viability [4]
43 | O=C(Nc1cccnc1)c1cc(-c2ccnc(F)c2)ccc1OCc1ccccc1 | 1.21 | 0.944 | 0.701 | 0.621
44 | O=C1CC[C@@H](C(=O)N2CSC[C@H]2C(=O)O)N1 [Pidotimod] | 1.04 | 1.14 | 0.806 | 1.04
45 | Oc1c(Cl)cc(Cl)c2cccnc12 [Chloroxine] | 0.964 | 0.845 | 0.107 | 0.109
46 | c1ccc(-c2ccc(C(c3ccccc3)n3ccnc3)cc2)cc1 (centres undefined) [Bifonazole] | 0.859 | 0.932 | 1.01 | 0.895
47 | CN(C)CCC(c1ccc(Br)cc1)c1ccccn1 (centres undefined) [Brompheniramine hydrogen maleate] | 0.969 | 1.04 | 0.863 | 0.952
48 | COc1ccc(Cl)cc1NC(=O)Nc1cc(C)nc2ccccc12 | 0.989 | 1.01 | 0.343 | 0.25
49 | C[C@@](Cc1ccc(O)c(O)c1)(NN)C(=O)O [Carbidopa] | 0.955 | 0.982 | 0.938 | 0.918
50 | C=CC(=O)Nc1cccc(Oc2nc(Nc3ccc(N4CCN(C)CC4)cc3)ncc2Cl)c1 | 0.338 | 0.355 | 0.157 | 0.146
51 | CCOc1nc2cccc(C(=O)O)c2n1Cc1ccc(-c2ccccc2-c2nnn[nH]2)cc1 [Candesartan] | 0.89 | 0.961 | 0.82 | 1
52 | Nc1ncnc2c1ncn2[C@@H]1O[C@H](CO)[C@@H](O)[C@@H]1O [Vidarabine] | 1.15 | 1.15 | 1.12 | 0.998
53 | CC1CCN(CC[C@H]2CCCN2S(=O)(=O)c2cccc(O)c2)CC1 | 1.07 | 1.18 | 0.771 | 1.15
54 | CCOC(=O)C1=C(N)Oc2ccc(Br)cc2C1C(C#N)C(=O)OCC (centres undefined) | 0.886 | 1.04 | 0.55 | 0.935
55 | CCCCOc1cc(C(=O)OCCN(CC)CC)ccc1N [Oxybuprocaine HCl] | 1 | 1.08 | 0.819 | 1.07
56 | O=C1O[C@H]([C@@H](O)CO)C([O-])=C1O.[Na+] [Sodium ascorbate] | 0.772 | 1.02 | 0.93 | 1.09
57 | O=[N+]([O-])c1ccc(Nc2nc(N3CCOCC3)nc(N3CCOCC3)n2)cc1 | 0.733 | 0.98 | 0.837 | 0.811
58 | N#C/C(=C1/SC[C@@H](c2ccc(Cl)cc2Cl)S1)n1ccnc1 [Luliconazole] | 0.853 | 1.06 | 0.768 | 1.07
59 | Nc1nc(OCc2cc(Br)cs2)c2[nH]cnc2n1 [Lomeguatrib] | 0.545 | 0.82 | 0.19 | 0.346
60 | CCCCOc1ccc(C(=O)Nc2ccc(F)cc2F)cc1 | 1.02 | 1.19 | 0.752 | 1.06
61 | CC(C)Oc1ccc2c(=O)c(-c3ccccc3)coc2c1 [Ipriflavone (Osteofix)] | 0.78 | 0.976 | 0.963 | 1.07
